The values that follow come from PubChem BioAssay (NCI).

Several values for one entry are separate records, joined by “and”; a condition that tells them apart may be missing. Equal entries are not always repeated.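 Cultured in 96-well plates, cells were exposed to test compound for 48 hours across five concentrations. GI50 marks 50% less growth. Definition used: TGI = concentration required for complete inhibition of growth.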

The subject of the assay is NCI-H322M lung. Briefly: NCI anticancer screen, dose series, 48 h.
The compound `CNCCCNC(=S)Cn1cc(C)c(=O)[nH]c1=O` gave a TGI of more than 100 µM. Same read-out and setting: next, `O=C(O)C(O)(c1ccc(-c2ccccc2)cc1)c1ccc(-c2ccccc2)cc1`: more than 100 µM. In the case of `CC(C)(C)c1cc(C(=O)Nc2ccc(C(=O)NCCN)cc2)cc(C(C)(C)C)c1`, the GI50 is 2230 nM and the TGI was determined as 7.02 µM.

`O=S(=O)(O)c1cc(S(=O)(=O)O)c2cc(N=Nc3c(O)ccc4ccccc34)ccc2c1` returned a TGI of more than 100 µM. Regarding `Cc1ccc(S(=O)(=O)N2CCCSCCSCCCN(S(=O)(=O)c3ccc(C)cc3)CC2)cc1`, the TGI was more than 100 µM.

Turning to `C[C@]12CC[C@@H]3c4ccc(O)cc4CC[C@H]3[C@@H]1CC[C@@H]2NS(=O)(=O)c1ccc(Br)cc1`, the GI50 was 4580 nM and the TGI is 16.7 µM. The compound `COc1ccc(NC(=S)NNC(=O)c2nsc3ccccc23)cc1` returned a TGI of more than 100 µM.

The compound `S=C=Nc1ccc(CSc2nc3ccccc3[nH]2)cc1` returned a TGI of 32.2 µM. Regarding `COc1ccc(/C=C2\C[C@H]3[C@@H]4CC=C5C[C@@H](OC(C)=O)CC[C@]5(C)[C@H]4CC[C@]3(C)\C2=N\O)cc1OC`, the TGI was more than 100 µM. For the compound `O=c1cc(-c2ccccc2)[nH]c2ccc(S)cc12`, the TGI is more than 100 µM. For the compound `CN(CCO)Cc1ncccc1O`, the TGI is more than 100 µM.

`O=NN1C(c2ccccc2)C2CCCC(C2=O)C1c1ccccc1` (stereo unspecified) came in with a TGI of more than 100 µM.

In turn, `c1csc(-c2nccc3c2[nH]c2ccccc23)c1` had a TGI of 76.7 µM. The compound `C/C(=N\NC(=O)C[N+](C)(C)C)c1sc(-c2cccnc2)nc1C` gave a TGI of more than 100 µM.

For `Cc1cccc(C)c1NC(=O)CCc1nnc2s/c(=C\c3ccc(N(C)C)cc3)c(=O)n12`, the TGI is more than 100 µM. The compound `COC(=O)C1CCC(=O)N1CN(C(C)=O)c1cc(OC)ccc1OC` (stereo unspecified) showed a TGI of more than 100 µM. Compound `COC1CC(OC2CCC3(C)C(=CCC4C3C(OC(C)=O)C(OC(=O)CC(C)C)C3(C)C(C(C)=O)CCC43O)C2)OC(C)C1OC1CC(OC)C(OC2CC(OC)C(OC3OC(C)C(O)C(OC)C3O)C(C)O2)C(C)O1` (stereo unspecified) gave a TGI of more than 100 µM. Consider `CCOC(=O)Nc1nc2ccccc2[nH]1`, for which the GI50 is 16200 nM and 6050 nM; the TGI is more than 100 µM. In turn, `O=C1/C(=C/c2ccc3c(c2)OCCO3)CCC/C1=C\c1ccc2c(c1)OCCO2` gave a TGI of more than 100 µM. Compound `Cc1cccc(NC(=O)O/N=C(\Cl)C(C)C)c1` gave a TGI of 31.2 µM. On to `O=C1/C=C/[C@@H](O)[C@@H]2C[C@@H](O)C[C@H]2/C=C/CCC[C@H](CCc2ccc3ncccc3c2)O1`, for which the GI50 was 288 nM and the TGI was more than 100 µM. In turn, `CC(=O)N1c2ccccc2C2=NN(C)C(=N)SC21` (stereo unspecified) gave a TGI of more than 100 µM.

For `COc1cc2cc(C(=O)N3CC(CCl)c4ccc([N+](C)(C)Cc5ccc([N+](=O)[O-])cc5)cc43)[nH]c2c(OC)c1OC` (stereo unspecified), the TGI was determined as 50.7 µM.

Compound `O=C(c1ccco1)N(C(=S)N1CCN(c2ccccc2)CC1)C1CCCCC1` showed a TGI of more than 100 µM. In the case of `COCCOCCOCc1n(Cc2ccc3ccccc3c2)c2ccccc2[n+]1Cc1ccc2ccccc2c1`, the GI50 is 1200 nM and the TGI stood at 2.62 µM. In turn, `CNCC/C=C1\c2cc3c(cc2-c2c1c1cc(OC)c(OC)cc1c(=O)n2C)OCO3` returned a TGI of 1.65 µM.

Regarding `COc1cc(Cl)cc(-c2nn(-c3cccc(NC(=O)Nc4cccc(C(F)(F)F)c4)c3)cc2-c2ccncc2)c1`, the GI50 was 2630 nM and the TGI is 22.5 µM. Regarding `C[P+](C)(C)C`, the TGI was more than 100 µM.

`CCO/S(=N/S(=O)(=O)c1ccccc1)c1ccccc1[N+](=O)[O-]` (stereo unspecified) had a TGI of more than 100 µM.

The compound `Cn1c2c(c3ccccc31)CCN=C2C1CCCOC1=O` (stereo unspecified) showed a TGI of more than 100 µM. Compound `OC(c1ccc(Cl)cc1)(c1ccc(Cl)cc1)c1cncnc1` showed a TGI of 31.1 µM. Same read-out and setting: the value for `COc1ccc2c(c1)c1c(n2CCN2CCOCC2)-c2cccc(OC)c2CC1` was more than 100 µM; that for `Cc1ccc(S(=O)(=O)NC(=O)NCCc2ccccc2)cc1` was more than 100 µM; that for `O=C(O)CCO/N=C1/C(c2c(O)[nH]c3ccccc23)=Nc2ccccc21` was 95.6 µM.

Compound `C=C1[C@H]2O[C@H]2[C@@H](OC(C)=O)[C@@]2(C)[C@@H](OC(C)=O)C[C@@H](OC(=O)CCC)[C@@](C)(O)[C@@H]2[C@@H](OC(C)=O)[C@]2(O)[C@@H](C)C(=O)O[C@H]2[C@H]1Cl` came in with a TGI of more than 100 µM. `c1ccc2cc3c(cc2c1)Nc1c2ccccc2nc2cccc-3c12` showed a TGI of 3.02 µM. `CC(=O)OC1OC(c2ccoc2)C[C@@]12C1CCC3O[C@]3(C)[C@]1(C)[C@H](OC(C)=O)[C@H](OC(C)=O)[C@H]2C` (stereo partly specified): the TGI is more than 37.5 µM. Still for that read-out and setting: the value for `Cc1coc2c1C(=O)C(=O)c1ccccc1-2` was 2.82 µM; that for `CCOC(=O)C(=O)Nc1cc(Cl)c(Cl)cc1Cl` was more than 100 µM.

With `CC(C)c1ccc(C2NC(=S)NC3=C2c2ccccc2C3=O)cc1` (stereo unspecified), the TGI was more than 55.2 µM.

On to `NCCCOc1cc2ccccc2cc1C(=O)Nc1ccc(Cl)cc1OC(=O)c1cc2ccccc2cc1OCCCN`, for which the GI50 is 332 nM and the TGI was determined as 0.943 µM. As for `Clc1cc2ccccc2c2ccccc12`, the TGI was more than 100 µM. Same read-out and setting: next, `C/C(=N\NC(N)=S)c1ccc(C)c(C)c1`: more than 100 µM. Consider `CC1=CC(C)(c2c[nH]c3ccccc23)CC(C)(C)c2c1[nH]c1ccccc21` (stereo unspecified), for which the TGI was 45.6 µM. As to `N#COc1ccc(Oc2ccccc2)cc1`, the TGI is more than 100 µM. On to `c1ccc2c(c1)nc1n2CSCC1`, for which the TGI was more than 100 µM. `Cc1cc(S(=O)(=O)Nc2nnc3c4ccccc4cnn23)c(S)cc1Cl` showed a TGI of more than 100 µM. For the compound `CCCCCCCCOCC(O)CO` (stereo unspecified), the TGI was more than 100 µM. With `CCN(CC)c1c(-c2ccccc2)n[nH]c1C(=O)OC`, the GI50 was 13900 nM and the TGI was 55.7 µM. As for `O=C(O)c1cc2ccccc2c2c3c(ccc12)OCO3`, the GI50 is 226000 nM and the TGI was 745 µM. Compound `C=C(Cl)/C(=C\Cl)CCC(Cl)C(C)C` (stereo unspecified) had a TGI of more than 100 µM. `Cc1ccc(/C=C2/N=C(N/N=C\C(O)C(O)C(O)CO)NC2=O)cc1` (stereo unspecified): the TGI is more than 100 µM. As to `Cn1c(=O)nc2n(-c3ccc(Cl)cc3)c(-c3ccccc3)c(-c3ccccc3)nc-2c1=O`, the TGI is more than 100 µM. `COc1cc2oc(=O)cc(C)c2c(OC)c1O`: the TGI was more than 100 µM. Turning to `O=C(O)c1nc2ccc(Cl)cc2[nH]c1=O`, the TGI is more than 100 µM. On to `O=[N+]([O-])c1cccc(-c2nc(-c3ccc(Cl)cc3Cl)cn2-c2ccccc2)c1`, for which the GI50 was 1040 nM and the TGI was determined as 3.16 µM. With `O=C1c2c(ccc3c2CCC3)CC1Cc1ccc2c(c1)CCC2` (stereo unspecified), the TGI is more than 100 µM. With `CN(C)CCC(/C=C/c1ccccc1)=N\Nc1ccc(Cl)c(Cl)c1`, the TGI came out at 12.2 µM. `CC(C)(C)c1cc2c(c(C(C)(C)C)c1O)CC(=O)O2`: the TGI is more than 100 µM. With `NCCCCCNc1noc(Cc2c[nH]c3cc(Br)ccc23)n1`, the GI50 was 11100 nM and the TGI came to 66.3 µM. For `COc1ccc(C(C)c2cc(OC)c(OC)c(OC)c2)cc1` (stereo unspecified), in that order: 282 nM and more than 50 µM. Consider `[N-]=[N+]=NC1(c2ccccc2)C(=O)C(Cl)=C(c2ccccc2)N(c2ccccc2)C1=O` (stereo unspecified), for which the TGI is more than 100 µM. `CCOC(=O)c1nc2ccccc2n(CC)c1=O`: the TGI was more than 100 µM.

`N#Cc1ccc(/C=C(/C(=O)c2ccccc2)c2ccccc2)cc1` displayed a TGI of 28.8 µM.

With `CO[C@@H]1CCN(c2nccc(Nc3cc4c(C(C)C)ccc(N5CC(CS(C)(=O)=O)[C@H]5C)c4cn3)n2)C[C@@H]1F` (stereo partly specified), the GI50 is 708 nM and the TGI was found to be 65.1 µM. For the compound `O=c1c2ccccc2[nH]c2c(O)ccc(O)c12`, the TGI was more than 100 µM.

As to `CCOC(=O)Nc1sc2c(c1C#N)CC(C)CC2` (stereo unspecified), the TGI was more than 100 µM. Turning to `CC[C@@]1(OC(=O)CN(C)C)C(=O)OCc2c1cc1n(c2=O)Cc2cc3c(N)cccc3nc2-1`, the GI50 is 40.3 nM and the TGI was 0.263 µM. In turn, `C[C@]12Cc3cnc(-c4ccccc4)nc3C[C@@H]1CC[C@@H]1[C@@H]2CC[C@@]2(C)[C@H]1CC[C@]2(C)O` showed a TGI of 45.1 µM. Compound `CC(=O)Nc1ccc2c3c(cc(O)c2c1)N(C(=O)CCCCC(=O)N1CC(CCl)c2c1cc(O)c1cc(NC(C)=O)ccc21)CC3CCl` (stereo unspecified) registered a TGI of more than 23 µM. For the compound `CNCCN[C@@H]1c2cc3c(cc2[C@@H](c2cc(OC)c(O)c(OC)c2)[C@H]2C(=O)OC[C@@H]21)OCO3`, the TGI was 12.1 µM. Consider `CCC(=O)NI1OC(=O)c2ccccc21`, for which the TGI was more than 100 µM. As to `O=C(Cc1nc2sc3c(c2c(=O)[nH]1)CCCC3)Nc1ccccc1`, the TGI is more than 100 µM. For `O/N=C1\CC2(N3CCOCC3)CCC1(c1ccccc1)CC2`, the TGI is more than 100 µM. As to `C[C@H]1C/C=C/[C@H]2[C@@H]3O[C@]3(C)[C@@H](C)[C@H]3[C@H](Cc4ccccc4)NC(=O)[C@]32OC(=O)O/C=C/[C@@](C)(O)C1=O`, the GI50 is 1790 nM and 1720 nM; the TGI is > 98.2 µM and 125 µM and 116 µM. Compound `CN1CC(c2ccccc2)C(O)(C2(c3ccccc3)CN(C)CC(c3ccccc3)C2=O)C(c2ccccc2)C1` (stereo unspecified) gave a TGI of more than 100 µM.

The compound `COC(=O)c1c(C)[nH]c2c1C(=O)C(=O)c1nc(C)c(C)nc1-2` registered a TGI of 60.5 µM. For `Cc1ccc(S(=O)(=O)OCC#CCOS(=O)(=O)c2ccc(C)cc2)cc1`, the GI50 is 2490 nM and the TGI was 6.12 µM.

On to `CCCCC(C)/C=C/C(=O)C1=C(O)/C(=C/C(=O)O)OC1=O` (stereo unspecified), for which the TGI was more than 100 µM. As for `CN(C)CCNCc1ccc2c(-c3ccccc3)nc3cc(Cl)c(Cl)cc3n12`, the TGI was determined as 20.5 µM. `C1OC1CN1CCN(CC2CO2)CC1` (stereo unspecified) came in with a TGI of more than 100 µM.

`C[C@@H]1[C@H](O)CC2=C(CC[C@@H](O)C2(C)C)[C@@]1(CO)CCc1ccoc1` came in with a TGI of more than 50 µM. Compound `OB(O)c1ccccc1C#Cc1ccccc1B(O)O` returned a TGI of 39.9 µM. On to `O=C(CSCC(=O)N/N=C/c1ccccc1O)N/N=C\c1ccccc1O`, for which the GI50 was 1690 nM and the TGI is more than 100 µM. `c1ccc2c(c1)nn1c3ccc4nonc4c3[n-][n+]21` returned a TGI of more than 100 µM. Consider `COC(=O)c1cc(OS(=O)(=O)C(F)(F)F)c(=O)n2c1CCCC2`, for which the TGI was more than 100 µM. With `COc1cc2c(oc(=O)c3c4occc4cc(OC)c23)c2cccc(OCc3ccccc3)c12`, the TGI was more than 100 µM. `O=C(O)C1CC=CCC1C(=O)Nc1cccc(O)c1` (stereo unspecified) registered a TGI of more than 100 µM. The same measure, in the same setting: next, `O=C1C(=C2CCCC2)CCC1CN1CCCCC1` (stereo unspecified): more than 100 µM.
